# According to PubChem BioAssay AID488969 (Vanderbilt High Throughput Screening Facility, 2010):
# Whole data set: some 110,000 compounds, median “z-score” near -0.1, cut for the highest 2% near 2. The list shows a part of the results.
# Target: Metabotropic glutamate receptor 8 (Rattus norvegicus) (UniProt P70579)
# Assay: rat mGluR8 modulators via GIRK flux, primary screen, cell-based, thallium flux, HTS (AID 488969)
# Settings: HEK293 rat mGluR8, GIRK (G protein-gated inwardly rectifying potassium channel) thallium flux, FluoZin2; at 10 µM; stronger effect = higher value; submaximal glutamate (EC20) added with thallium
# Sequence of UniProt P70579 (P70579 whole entry, looked up): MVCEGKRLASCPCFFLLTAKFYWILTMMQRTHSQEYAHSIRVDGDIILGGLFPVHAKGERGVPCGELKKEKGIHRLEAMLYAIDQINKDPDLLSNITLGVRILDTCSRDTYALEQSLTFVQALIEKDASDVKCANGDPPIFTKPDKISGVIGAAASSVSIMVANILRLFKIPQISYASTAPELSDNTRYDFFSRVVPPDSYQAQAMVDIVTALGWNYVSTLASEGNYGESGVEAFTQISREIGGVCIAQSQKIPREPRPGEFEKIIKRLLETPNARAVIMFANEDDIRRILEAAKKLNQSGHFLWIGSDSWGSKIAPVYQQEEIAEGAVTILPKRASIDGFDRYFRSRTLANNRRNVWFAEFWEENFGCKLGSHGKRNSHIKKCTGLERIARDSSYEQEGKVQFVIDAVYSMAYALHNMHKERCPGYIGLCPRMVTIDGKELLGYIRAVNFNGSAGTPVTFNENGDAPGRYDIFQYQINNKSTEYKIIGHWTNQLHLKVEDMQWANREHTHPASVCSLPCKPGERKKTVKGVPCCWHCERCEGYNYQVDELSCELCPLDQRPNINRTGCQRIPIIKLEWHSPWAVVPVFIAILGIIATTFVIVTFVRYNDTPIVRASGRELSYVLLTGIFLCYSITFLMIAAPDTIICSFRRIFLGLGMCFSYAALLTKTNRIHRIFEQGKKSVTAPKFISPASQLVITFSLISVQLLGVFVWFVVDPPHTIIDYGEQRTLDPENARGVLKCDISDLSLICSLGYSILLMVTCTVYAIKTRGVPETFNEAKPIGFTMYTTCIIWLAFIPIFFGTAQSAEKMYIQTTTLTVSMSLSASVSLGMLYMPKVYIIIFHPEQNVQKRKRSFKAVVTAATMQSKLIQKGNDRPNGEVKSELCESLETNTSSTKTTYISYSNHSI
row,SMILES,z-score
1,CO/N=C/NC(=O)NOCc1ccc(Cl)cc1Cl,-0.332
2,CCc1nc2ccccc2c(C(=O)Oc2cccc3cccnc23)c1C,-0.719
3,Nc1nc(SCC(=O)NCc2ccco2)[nH]c(=O)c1-c1ccccc1,-0.148
4,CCCCn1c(SCC(=O)O)nc2ccccc21,-0.804
5,O=C(NCc1cn(-c2ccccc2)nc1-c1ccccc1)c1cc([N+](=O)[O-])cc([N+](=O)[O-])c1,0.187
6,CCn1c(SCc2nc3scc(-c4ccccc4)c3c(=O)[nH]2)nnc1-c1cccs1,-0.975
7,Cc1cc(N2CCOCC2)nc2ccc(NC(=O)CCC(=O)N3CCCCC3)cc12,-0.00221
8,Cc1nn2c(-c3ccncc3)nnc2c2ccccc12,-1.3
9,O=C(CN1CCOc2ccccc21)NC1CCN(Cc2ccccc2)CC1,-0.53
10,CC1CCOC2(O1)C(=O)N(CN1CCN(c3cccc(Cl)c3)CC1)c1ccccc12 (stereo unspecified),-0.0539
11,CCCOc1ccc(Cn2c(O)cc(=O)[nH]c2=O)cc1,-0.238
12,O=C1Nc2ccccc2/C1=C/C(=O)c1cccs1,0.962
13,COc1cccc(-c2noc(N)c2C#N)c1,-0.206
14,COC(=O)c1ccc(C(c2c(N)n(CC(C)C)c(=O)[nH]c2=O)N2CCN(c3ccccc3)CC2)cc1 (stereo unspecified),0.147
15,CCOC(=O)C1=C(C)Nc2nnnn2C1c1c[nH]c2ccccc12 (stereo unspecified),-0.097
16,COC(=O)Cc1ccc(NC(=S)NN2CCOCC2)cc1,-0.09
17,CN1CCN(/N=C/c2nc(-c3ccc(Cl)cc3)n3ccccc23)CC1,-0.0274
18,COC(=O)c1cc(OC)c(OC)cc1NC(=O)c1cccnc1,-0.373
19,C=CCN(CC=C)c1nc2ccccc2nc1C(C#N)C(=O)OCCOC (stereo unspecified),-0.858
20,CCN1CCN(CC(O)COCCOc2ccc(Br)cc2)CC1 (stereo unspecified),-0.122
21,Brc1ccc(C2=CC(c3cccs3)n3ncnc3N2)cc1 (stereo unspecified),-1.55
22,CCC(COC(=O)Nc1cccc(C)c1C)NC(=O)OCC(C)C (stereo unspecified),-0.549
23,CCOC(=O)c1ccc(NC(=O)CSc2nc(C)nc3c2c(=O)n(C)c(=O)n3C)cc1,0.221
24,O=C(COC(=O)c1cccc(S(=O)(=O)N2CCOCC2)c1)Nc1ncc(C(F)(F)F)cc1Cl,-0.14

row,SMILES,z-score
1,COC(=O)c1ccc(CSc2nc(C)nc3sc(C)c(C)c23)o1,1.53
2,O=C(COc1ccc(/C=N/NC(=O)c2ccccc2)cc1)Nc1ccc([N+](=O)[O-])cc1,0.0219
3,CCOC(=O)c1c(C)oc2c1c(C=NCC1CCCO1)c(O)c1ccccc12 (stereo unspecified),-0.244
4,COCCNC(=O)CSc1nc2cc(OC)c(OC)cc2c(=O)n1Cc1ccco1,0.329
5,O=S(=O)(/N=C(/c1ccccc1)N1CCCCC1)c1ccccc1,-0.126
6,O=C(CNC(=O)c1ccco1)OCc1ccc(Cl)cc1,-0.161
7,CCn1cc(C(=O)N2CCN(c3cccc(Cl)c3)CC2)c2cc(OC)c(OC)cc2c1=O,0.219
8,COc1cc(NC(=O)COC(=O)c2ccc(C)c(S(=O)(=O)N3CCCCC3)c2)c(C)cc1[N+](=O)[O-],-0.856
9,CCn1c(SCC(=O)N2CCN(c3ccccc3)CC2)nnc1-c1c[nH]c2ccccc12,-0.779
10,CCCc1ccc(Oc2coc3cc(OCC(=O)Nc4ccccc4C)ccc3c2=O)cc1,-0.0523
11,Cc1cc(C)c(C#N)c(N2CCSCC2)n1,-0.563
12,Cc1cc(C)nc(N(C#N)CCOc2ccccc2)n1,-0.698
13,Cc1ccc2c(c1)N(CC(=O)NCc1ccco1)C(=O)CO2,-0.265
14,O=C(NCC1CCCO1)c1ccc(N2CCCCC2)nc1 (stereo unspecified),0.113
15,COc1cc(CC(=O)Nc2sccc2C(N)=O)cc(OC)c1OC,0.767
16,CC1(C)C2CCC13CS(=O)(=O)NC3C2 (stereo unspecified),-0.0436
17,Clc1ccc2nc(-c3ccccc3)c(CN3CCOCC3)n2c1,-0.26
18,COc1cccc(/C=N/NC(=O)C(C)n2nc(C)c([N+](=O)[O-])c2C)c1O (stereo unspecified),-0.579
19,CN(C)S(=O)(=O)Oc1cccc(C(=O)Nc2cccc(Cl)c2)c1,-0.764
20,O=C(CC(C(=O)N1CCc2ccccc21)n1ccnc1)NCc1ccccc1 (stereo unspecified),-0.318
21,CCc1ccccc1OCCOc1ccc(C)cc1OC,-0.148
22,CCCn1cc(SCC(=O)NCc2ccco2)c2ccccc21,-0.826
23,CC(NC(=O)c1cccnc1)C(c1cccs1)N1CCOCC1 (stereo unspecified),-0.295
24,CSc1ccccc1NC(=O)c1onc(C)c1Cl,0.00573

row,SMILES,z-score
1,Nc1c(C(=O)NCc2ccc(Cl)cc2)sc2nc3c(c(C(F)(F)F)c12)CCC3,0.532
2,Cc1cc2cc(CNC(=O)c3ccc(S(=O)(=O)N4CCOCC4)cc3)ccc2n1C,-0.249
3,Cc1ccc2nc(-c3ccc(NC(=S)NC(=O)CC(C)C)cc3)sc2c1,-0.0287
4,O=c1cnn(-c2ccccc2)c(-c2ccccc2)c1,-1.39
5,Cc1ccc2c(C)nc(Nc3nc(CSc4nc5ccccc5[nH]4)cc(=O)[nH]3)nc2c1,-0.473
6,COc1ccc(NC(C)=O)cc1CNC(=O)COc1c(C)c(C)cc(C)c1C,-0.0399
7,CCCc1ncc(C(=O)c2ccc(OC)cc2)n1C,-0.0109
8,CC1=CC(C)C2C(=O)N(CCCN(C)C)C(=O)C2C1 (stereo unspecified),0.122
9,Cc1ccccc1CS(=O)(=O)CC1(O)CCN(C(=O)c2cccc(C(F)(F)F)c2)CC1,0.166
10,O=C(O)c1cccc(-c2nnn(Cc3ccccc3)n2)c1,-0.942
11,Cc1ccc(S(=O)(=O)CC2CSc3nc(N)cc(=O)n32)cc1 (stereo unspecified),0.151
12,CCCCn1cc(SCC(=O)O)c2ccccc21,-0.488
13,CCOC(=O)C(CSCC(=O)c1ccc(Cl)cc1Cl)NC(=O)OC(C)(C)C (stereo unspecified),0.504
14,COc1ccccc1OCC(=O)Nc1ccc(S(=O)(=O)Nc2cc(C)nc(C)n2)cc1,0.12
15,CC1CCN(CCC(=O)Nc2ccc(Br)cc2)CC1,0.106
16,Cc1ccc(C(=O)COC(=O)CNS(=O)(=O)c2ccccc2)cc1[N+](=O)[O-],0.0421
17,CCOC(=O)c1c(/N=C/c2cc([N+](=O)[O-])ccc2O)sc(C)c1C,0.177
18,O=C(NCCSCc1ccc(Cl)cc1Cl)c1ccc(CN2CCOCC2)cc1,-0.33
19,CCSc1nnc(NC(=O)CSc2nnc(Cc3cccn3C)n2-c2ccc(C)cc2)s1,-0.0856
20,CCNC(=O)CSc1nnc(C2CC2)n1-c1ccccc1,-0.318
21,COC(=O)Oc1nsnc1N1CCOCC1,1.87
22,Cc1ccc2c(c1)N=C(c1ccc(F)cc1)CO2,-0.205
23,CCOc1ccc(NC(=O)CN2CCN(CC(=O)c3ccc(OCC)cc3)CC2)cc1,-0.33
